This is one part of the list.

The assay relates to PF3D7_0420300 AP2 domain 1 (GST-tagged). The assay can be described thus: gcPBM binding intensity (ln(normalized median fluorescence intensity)); higher = stronger DNA binding. In outline:
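For binding intensity, the highest Masliner-normalised natural-log median intensity across replicate spots of either probe orientation was taken. Protein bound to the array was stained with Alexa488 anti-GST antibody and scanned at 488 nm. The protein, GST-tagged P. falciparum DNA-binding domains from E. coli at about 25 μg on average, had been applied for 1 h to an Agilent 4 × 180k array of primer-extended double-stranded 36-bp intergenic genomic probes and negative controls.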
Consider “CATATTTACTATCACACACACGATATATATAAATAT [CACACA_site1241]”, for which the “gcPBM binding intensity (ln)” value was found to be 9.8.

On to “TTATACTAAATGAACACACACACATCTATATTTATA [CACACA_site6199]”, for which the “gcPBM binding intensity (ln)” value was determined as 9.99. For “AATTAAAATAATAATACACACATCATAGAAAAAGAC [CACACA_site292]” the value was 10.4; for “AAATTAGACTATAATACACACATAAAAAAAAAATCA [CACACA_site7672]”, 9.72. As for “AATTGGGTAGGACATGCATGAGAAATTAATATTGCA [TGCATGCA_site356]”, the figure is 9.17. For “ATATATATATATATATGTACTAACCTTTTAAAATAT [XGTACX_site6488]” the value was 9.04; for “AATCAAAGCCCACATACACACACATATATATATATA [CACACA_site7987]”, 9.78; for “TATTACATTGTTGAATGTACTCATTTAAAATTTATA [XGTACX_site7987]”, 9.04. Turning to “ATGTCAAACATTTGCACACAAAAAAATAAAAATTAA [CACACA_site692]”, the “gcPBM binding intensity (ln)” value was 9.29. As for “TTTTTCTTAAAAAATTGTACACATATATATATATAT [XGTACX_site542]”, the figure is 9.11; as for “ATTAAGTTAAACATTACACACTATGTATTATTTATG [CACACA_site973]”, 9.52. For “TTTTTTTTTTTTAATACACACATATTTATATTTATT [CACACA_site7802]” the value was 9.46. For “TAATATTATTTAGAGTGTACTCATAAATCAACAAAA [XGTACX_site5269]” the value was 9.08; for “ATATAGAACACCTGTGCATGCAAGTGCTAAAAAATT [TGCATGCA_site213]”, 9.43.

Take “CTATTTTTATATTATTGTACGTTGTTATTATATATA [XGTACX_site1469]”: the “gcPBM binding intensity (ln)” value came to 9.63. For “CTAAGCTAAGTAAGCTGTACTTCACCTTTATACAGT [XGTACX_site3087]” the value was 9.06; for “TTTATATTTATATATACACACATATACATCCTATTT [CACACA_site3079]”, 9.67; for ATATATATGGAAACAGTGCAATACATATATATATAT, 9.71. As for “CACATACAGACATACACACATACACATATACGCATA [CACACA_site1745]”, the figure is 9.86. As for “TCTGTATATTTCGCGCGTACGAACAAATTGATAATT [XGTACX_site7965]”, the figure is 9.26; as for “ATATAATATGGTATTACACACTGTTAAAAGTATGGC [CACACA_site5190]”, 9.5.

For “ATATATATTTTTATAACACACAATGAAGTACATTAC [CACACA_site8270]”, the “gcPBM binding intensity (ln)” value was 9.42.

As for “AAACAATAAAAGATTACACACATATATAGCATCTAT [CACACA_site5012]”, the “gcPBM binding intensity (ln)” value worked out at 9.74.

Turning to “TTTCATTTGTCGTTATGTACTTATTAAATATTATTA [XGTACX_site7709]”, the “gcPBM binding intensity (ln)” value stood at 9.46. As for “TAAAGTAAAGACATACTTATTTTCCATCCACTTCTT [CACACA_negctrl_site1288]”, the figure is 9.28. For CATAAATAAGCTTTAGTGCATTATATTTAAATTTTT the value was 8.97. For the sequence “ATAAAATGAACCTTTTGTACATATATATATATATAT [XGTACX_site4610]”, the “gcPBM binding intensity (ln)” value turned out to be 9.09. Regarding “ATATTATATATATATAAACACACAAATATTTTTATA [CACACA_site8486]”, the “gcPBM binding intensity (ln)” value was 9.35. For “AACATCTCATATCGTACTACACTCATATATATATAT [XGTACX_site170]” the value was 9.66; for “TGAATATTTCTATATACACACATATATATATATATA [CACACA_site3451]”, 9.34; for “TTTAATAATAATAAAAGTACACAAATATAAAGGAAA [XGTACX_site5203]”, 9.48.

On to AGGTTTTCTTAAATAGTGCATTATAACAAAAATAAA, for which the “gcPBM binding intensity (ln)” value stood at 8.94. As for “TCACGTATGTATATTACACACATACATATTATTCAC [CACACA_site4276]”, the figure is 9.58; as for “ATATATATAAAATGTTGTACATATATATAAATAATA [XGTACX_site1661]”, 9.16; as for “CTAAAATACAGACACACACACACATATATATATATA [CACACA_site4150]”, 9.93. Turning to “TTAAAATAGGGCGAAGAAATTTTCTGTAAACATTTG [CACACA_negctrl_site1010]”, the “gcPBM binding intensity (ln)” value stood at 9.01. Turning to “ATATGCTTATATTATATATATAAGTCTATATATTTT [XGTACX_negctrl_site349]”, the “gcPBM binding intensity (ln)” value turned out to be 9.18. In the case of “GGGTTTTTAAAATGTAGTACATATGTAAACATCAAA [XGTACX_site1262]”, the “gcPBM binding intensity (ln)” value was determined as 9.05. Turning to “ATTTGAAATTGGTAGACACACAATAAAATATCAAAA [CACACA_site447]”, the “gcPBM binding intensity (ln)” value came to 9.27. For “AAAAAGTTATTATGAACACACATTTATTATAGTCAT [CACACA_site6838]” the value was 9.37; for “CATATAAATATTTGTGCACACAATTATTAATAATTA [CACACA_site3884]”, 9.35; for “TTAAACTTGAGACACACACACACACGGATATAAAAA [CACACA_site6495]”, 10.2. For “CTTTTATTCAAAAGATGTACTTAAATATATATCTAA [XGTACX_site4326]” the value was 8.8; for “TGCAGTCTGGAGAAACGTACACAGTATCTGGTAACA [XGTACX_site2014]”, 9.18. As for “ATGTGTATAATTAAATGTACATATATATATATATAT [XGTACX_site829]”, the figure is 9.52. For “ATATATATCGGACACACACACATGTTTTAAAACTAT [CACACA_site4218]”, the “gcPBM binding intensity (ln)” value amounted to 9.97. For “AATAAAATGGAATACGGTACACATAATCCTAAAATG [XGTACX_site926]” the value was 9.43; for “ATATTATAAAATAAAAGTACACAATTATATATATAT [XGTACX_site8812]”, 9.35.

Consider “TATTTTTAAAATTAAATGAATAAATAAATAAATATA [XGTACX_negctrl_site553]”, for which the “gcPBM binding intensity (ln)” value was 8.93. For TTTATATTTATTGTTGTGCACAGAACCATATTCGTT the value was 9.28; for “TATCACTATAGACAAGCATGCATATGTACTAATATC [TGCATGCA_site1020]”, 9.32. As for “CATTATTATTAACATACACACGTGTTATATACCCCC [CACACA_site9365]”, the figure is 9.89; as for “TATATATTTATTTATAGTACACTATTTATGAAAACC [XGTACX_site3062]”, 9.1; as for “TAACATAAATTTAGGAGTACACTTTTTATACATACA [XGTACX_site4066]”, 9.12. For “AAATTCACAATGTTTGGTACACATAAAAAAAAAAGA [XGTACX_site7109]” the value was 9.32. With TATTATTATTTTATGGTGCAAAAAAAAAAAAAAAAA, the “gcPBM binding intensity (ln)” value is 8.56.

In the case of “AAAAATTTTTTTTTTTTTTTAAATAATAAAAATGAA [CACACA_negctrl_site1435]”, the “gcPBM binding intensity (ln)” value is 8.58. As for “AACATACGACAATACGCACACATATCTGTACATATT [CACACA_site5115]”, the figure is 9.8.

These data come from the supplement of paper PMC11417369.
